In the test the target is GTPase KRas (Homo sapiens) (UniProt P01116). Briefly: Covalent labelling of cysteine mutants by fragments, read by mass spectrometry (AID 2202238). To be noted: KRAS G12D cysteine mutants, disulfide tethering, MALDI-TOF labeling, stronger effect = higher value, fragment at 500 µM. On the set-up: protein at 5 µM with 500 µM competing thiol for 1.5 h.
The mark [1] stands for this setting: measured here: G75C mutant labeling.
The mark [2] stands for this setting: measured here: H94C mutant labeling.
[3] abbreviates: measured here: I36C mutant labeling.
Where [4] appears, read: measured here: L120C mutant labeling.
[5] abbreviates: measured here: M67C mutant labeling.
Where [6] appears, read: measured here: M72C mutant labeling.
The mark [7] stands for this setting: measured here: N86C mutant labeling.
Setting [8] is: measured here: P121C mutant labeling.
Where [9] appears, read: measured here: S122C mutant labeling.
Where [10] appears, read: measured here: S136C mutant labeling.
The mark [11] stands for this setting: measured here: G60C mutant labeling.
Setting [12] is: measured here: N26C mutant labeling.

Some of the results follow. These are further read-outs of the screen, such as a control signal, another cell line or another target. No call is given for them.

Sequence of UniProt P01116 (P01116 whole entry, looked up, the tested form may be a part): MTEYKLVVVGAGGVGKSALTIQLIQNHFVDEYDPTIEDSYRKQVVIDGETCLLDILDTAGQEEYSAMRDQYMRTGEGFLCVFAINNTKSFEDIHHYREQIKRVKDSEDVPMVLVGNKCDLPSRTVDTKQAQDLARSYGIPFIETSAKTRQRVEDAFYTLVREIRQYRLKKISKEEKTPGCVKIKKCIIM

As to `O=C(NCCS)c1cccc(Oc2ccncc2)c1Cl`, the percent labeling runs as follows: under setting [1], 27.8%; under setting [2], 39.9%; under setting [3], 45.9%; under setting [4], 34.3%; under setting [5], 45.2%; under setting [6], 75.1%. Also, the percent labeling under setting [7] stood at 38.6%, the percent labeling under setting [8] was determined as 33.6%, the percent labeling under setting [9] amounted to 35% and the percent labeling under setting [10] worked out at 54.3%.

On to `Cc1n[nH]c(C)c1C1COCCN1C(=O)CCS` (centres undefined), for which the percent labeling by setting is: under setting [1], 11.3%; under setting [2], 32.2%; under setting [3], 37.2%; under setting [4], 26.8%; under setting [5], 40.1%; under setting [6], 13.2%. Also, the percent labeling under setting [7] amounted to 24.7%, the percent labeling under setting [8] is 31.4%, the percent labeling under setting [9] was found to be 27.9% and the percent labeling under setting [10] was found to be 53.1%.

For `CC(C)C(=O)Nc1ccc(C(=O)NCCS)cc1`, the percent labeling came out at 12.6% under setting [11]; 10.7% under setting [1]; 18.4% under setting [2]; 16.5% under setting [3]; 18.4% under setting [4]; 15.4% under setting [5]. Besides, the percent labeling was found to be 23.8% under setting [6]; 33.2% under setting [12]; 17.1% under setting [7]; 15.7% under setting [8]; 12.1% under setting [9]; 29.4% under setting [10].

In turn, `Cn1ncc(NC(=O)CCS)c1-c1ccc(F)cc1F` displayed a percent labeling under setting [1] of 16.6%; a percent labeling under setting [2] of 50%; a percent labeling under setting [3] of 41.5%; a percent labeling under setting [4] of 29.5%; a percent labeling under setting [5] of 43.4%; a percent labeling under setting [6] of 30.8%. Also, the percent labeling was 31.3% under setting [7], 34.5% under setting [8], 30.7% under setting [9] and 57.8% under setting [10].

On to `CCNC(=O)Cn1cc(-c2cccc(NC(=O)CCS)c2)cn1`, for which the percent labeling runs as follows: under setting [1], 5.6%; under setting [2], 31%; under setting [3], 25.9%; under setting [4], 15.8%; under setting [5], 17%; under setting [6], 32%. The percent labeling is, setting by setting: under setting [7], 23.5%; under setting [8], 12.3%; under setting [9], 14.6%; under setting [10], 23.1%.

Turning to `CCC(C(=O)NCCS)n1nnc(-c2ccsc2)n1` (centres undefined), the percent labeling is, setting by setting: under setting [11], 41.8%; under setting [1], 16.1%; under setting [2], 21.8%; under setting [3], 15.5%; under setting [4], 33.4%; under setting [5], 31%. For the same molecule, the percent labeling under setting [6] stood at 41.4%; the percent labeling under setting [12] came to 28.9%; the percent labeling under setting [7] worked out at 16.8%; the percent labeling under setting [8] is 21.1%; the percent labeling under setting [9] was 19.1%; the percent labeling under setting [10] was found to be 26.7%.

As for `CN(Cc1nc2ccsc2c(=O)[nH]1)C(=O)CCS`, the percent labeling by setting is: under setting [1], 11.6%; under setting [2], 38.6%; under setting [3], 41.8%; under setting [4], 39.9%; under setting [5], 40.3%; under setting [6], 35.8%. This molecule also returned a percent labeling under setting [7] of 32.6%, a percent labeling under setting [8] of 46.1%, a percent labeling under setting [9] of 40% and a percent labeling under setting [10] of 61.3%.

For the molecule `O=C(NCCS)c1cncc(-c2ccc(F)cc2)c1`, the percent labeling is, setting by setting: under setting [11], 24.6%; under setting [1], 10.5%; under setting [2], 12.8%; under setting [3], 12.5%; under setting [4], 14.9%; under setting [5], 15.1%. Besides, the percent labeling is, setting by setting: under setting [6], 44.9%; under setting [12], 32%; under setting [7], 10.4%; under setting [8], 17.1%; under setting [9], 10.6%; under setting [10], 22.2%.

On to `CC(C)(COCc1ccccc1)C(=O)NCCS`, for which the percent labeling stood at 35.6% under setting [11]; 15.3% under setting [1]; 28.4% under setting [2]; 14% under setting [3]; 31.6% under setting [4]; 25.6% under setting [5]. Besides, the percent labeling is, setting by setting: under setting [6], 25.2%; under setting [12], 25.7%; under setting [7], 5.3%; under setting [8], 22.4%; under setting [9], 17.9%; under setting [10], 31.6%.

With `CC(C)Cn1ncc2cc(C(=O)NCCS)cnc21`, the percent labeling reads like this: under setting [11], 26.8%; under setting [1], 14.4%; under setting [2], 21.2%; under setting [3], 18.7%; under setting [4], 21.2%; under setting [5], 23.9%. Moreover, the percent labeling by setting is: under setting [6], 37%; under setting [12], 41.9%; under setting [7], 18.7%; under setting [8], 17.9%; under setting [9], 19.5%; under setting [10], 40.2%.

Take `O=C(CCS)N1CCN(c2ncnc3c2oc2ccccc23)CC1`: the percent labeling by setting is: under setting [1], 24.9%; under setting [2], 20.4%; under setting [3], 22.2%; under setting [4], 11.8%; under setting [5], 17.4%; under setting [6], 29.3%. The percent labeling by setting is: under setting [7], 10.2%; under setting [8], 13.4%; under setting [9], 6.5%; under setting [10], 24%.

For `O=C(CCS)NCC1(c2cccc(Cl)c2)CC1`, the percent labeling runs as follows: under setting [1], 14.7%; under setting [2], 32.3%; under setting [3], 30.3%; under setting [4], 30.2%; under setting [5], 30.9%; under setting [6], 41.4%. The percent labeling is, setting by setting: under setting [7], 16.8%; under setting [8], 23.9%; under setting [9], 22.2%; under setting [10], 45.1%.

With `O=C(CCS)NCc1cc(OC2CCC2)ccn1`, the percent labeling came out at 14.4% under setting [1]; 40.3% under setting [2]; 35.1% under setting [3]; 33.9% under setting [4]; 39.9% under setting [5]; 27.3% under setting [6]. The molecule further displayed a percent labeling under setting [7] of 22.4%, a percent labeling under setting [8] of 27.7%, a percent labeling under setting [9] of 30.9% and a percent labeling under setting [10] of 52.6%.

Consider `O=C(CCS)NCc1cccc(OC(F)F)c1`, for which the percent labeling is, setting by setting: under setting [1], 13.9%; under setting [2], 37%; under setting [3], 39%; under setting [4], 33%; under setting [5], 31.6%; under setting [6], 41.5%. The percent labeling is 30.1% under setting [7], 32.8% under setting [8], 29.4% under setting [9] and 52.8% under setting [10].

In the case of `O=C(CCS)N1CCC(Oc2ccc3nccn3c2)CC1`, the percent labeling under setting [1] stood at 27.4%; the percent labeling under setting [2] is 36.1%; the percent labeling under setting [3] was 47.3%; the percent labeling under setting [4] is 39%; the percent labeling under setting [5] is 49.7%; the percent labeling under setting [6] turned out to be 35.1%. In addition, the percent labeling is 22.1% under setting [7], 36.2% under setting [8], 31.8% under setting [9] and 53.4% under setting [10].

For `Cc1ccc(C2CCC(NC(=O)CCS)CC2)cc1` (centres undefined), the percent labeling amounted to 8.3% under setting [1]; 22.5% under setting [2]; 19.3% under setting [3]; 20% under setting [4]; 13.6% under setting [5]; 31.6% under setting [6]. Also, the percent labeling runs as follows: under setting [7], 10%; under setting [8], 15%; under setting [9], 13.6%; under setting [10], 33.1%.

Consider `O=C(CCS)NC1(Cc2ccccc2F)CCCCC1`, for which the percent labeling stood at 7.2% under setting [1]; 18.3% under setting [2]; 22.8% under setting [3]; 14.6% under setting [4]; 12.7% under setting [5]; 48.8% under setting [6]. Further, the percent labeling under setting [7] is 18.4%, the percent labeling under setting [8] turned out to be 13.8%, the percent labeling under setting [9] was determined as 11.2% and the percent labeling under setting [10] came to 28.7%.

As to `Cc1c(NC(=O)CCS)cnn1CC(F)F`, the percent labeling runs as follows: under setting [1], 10.4%; under setting [2], 28.4%; under setting [3], 35.8%; under setting [4], 26.1%; under setting [5], 30.8%; under setting [6], 16.2%. Besides, the percent labeling came to 17.9% under setting [7], 35.4% under setting [8], 40.2% under setting [9] and 48.7% under setting [10].

Regarding `O=C(NCCS)c1ccc(-n2cccn2)c(F)c1`, the percent labeling was determined as 29.2% under setting [11]; 13.3% under setting [1]; 10% under setting [2]; 9.6% under setting [3]; 16.1% under setting [4]; 9% under setting [5]. Besides, the percent labeling is, setting by setting: under setting [6], 40.4%; under setting [12], 28.7%; under setting [7], 11.5%; under setting [8], 14.3%; under setting [9], 9.7%; under setting [10], 17.5%.

Regarding `O=C(Cn1c2ccccc2c(=O)c2ccccc21)NCCS`, the percent labeling was 10.8% under setting [11]; 4.2% under setting [1]; 10.2% under setting [2]; 10.9% under setting [3]; 43.4% under setting [4]; 8.2% under setting [5]. Besides, the percent labeling is, setting by setting: under setting [6], 20.8%; under setting [12], 11.5%; under setting [7], 7.9%; under setting [8], 8%; under setting [9], 6.1%; under setting [10], 15.3%.

`CCOC(=O)C12CC(C)(C1)OC21CCN(C(=O)CCS)CC1` returned a percent labeling under setting [1] of 11.6%; a percent labeling under setting [2] of 32.4%; a percent labeling under setting [3] of 31.5%; a percent labeling under setting [4] of 23.9%; a percent labeling under setting [5] of 40.6%; a percent labeling under setting [6] of 23.1%. The percent labeling under setting [7] was determined as 21.4%, the percent labeling under setting [8] turned out to be 26.4%, the percent labeling under setting [9] was 29.8% and the percent labeling under setting [10] came to 52.7%.

On to `CC1(C)CN(C(=O)CCS)c2cc(F)ccc21`, for which the percent labeling came to 24.5% under setting [1]; 38.9% under setting [2]; 25.4% under setting [3]; 13.9% under setting [4]; 13.9% under setting [5]; 40.8% under setting [6]. In addition, the percent labeling was 25.7% under setting [7], 15.7% under setting [8], 12% under setting [9] and 35.6% under setting [10].

As for `Cn1nc(C(F)(F)F)cc1-c1ccc(NC(=O)CCS)cc1`, the percent labeling under setting [1] was 14.4%; the percent labeling under setting [2] is 13%; the percent labeling under setting [3] is 16.7%; the percent labeling under setting [4] stood at 8.7%; the percent labeling under setting [5] turned out to be 11%; the percent labeling under setting [6] is 37.9%. Besides, the percent labeling reads like this: under setting [7], 14.5%; under setting [8], 12.2%; under setting [9], 7%; under setting [10], 15.6%.

On to `CN1CCN(C(=O)CCS)CCC12CCOCC2`, for which the percent labeling runs as follows: under setting [1], 6.8%; under setting [2], 26.8%; under setting [3], 36.2%; under setting [4], 25.8%; under setting [5], 35.6%; under setting [6], 7.3%. Further, the percent labeling was 11% under setting [7], 27.1% under setting [8], 28% under setting [9] and 46.4% under setting [10].

The values above are taken from PubChem BioAssay AID2202238 (Ras Initiative Chemistry Research Team, Frederick National …, 2025).
